# Test results reported in the supplement of paper PMC9542798.
# Assays:
# Test in all cases: minimum inhibitory concentration
# [1] = compound: CN(C)[C@@H]1C(O)=C(C(N)=O)C(=O)[C@@]2(O)C(O)=C3C(=O)c4c(O)cccc4[C@@](C)(O)[C@H]3C[C@@H]12 [Tetracycline]
# Description: (§1)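 Broth microdilution MIC per ISO 10932 on precoated VetMIC Lact-1 plates (tylosin, vancomycin and ampicillin plates prepared manually) against lactic acid bacteria and bifidobacteria isolates. Plates were read visually after 48 h anaerobic incubation (bifidobacteria 72 h; enterococci and staphylococci 24 h aerobic) at species-specific temperatures of 30 or 37 °C. Values prefixed with < or > are outside the tested dilution range.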
# [2] = compound: CC[C@H]1OC(=O)[C@H](C)[C@@H](O[C@H]2C[C@@](C)(OC)[C@@H](O)[C@H](C)O2)[C@H](C)[C@@H](O[C@@H]2O[C@H](C)C[C@H](N(C)C)[C@H]2O)[C@](C)(O)C[C@@H](C)C(=O)[C@H](C)[C@@H](O)[C@]1(C)O [Erythromycin]
# Description: as §1
# [3] = compound: CCC[C@@H]1C[C@@H](C(=O)N[C@@H]([C@H]2O[C@H](SC)[C@H](O)[C@@H](O)[C@H]2O)[C@H](C)Cl)N(C)C1 [Clindamycin]
# Description: as §1
# [4] = compound: CN[C@@H]1[C@H](O[C@H]2[C@H](O[C@H]3[C@H](O)[C@@H](O)[C@H](N=C(N)N)[C@@H](O)[C@@H]3N=C(N)N)O[C@@H](C)[C@]2(O)C=O)O[C@@H](CO)[C@H](O)[C@H]1O [Streptomycin]
# Description: as §1
# [5] = compound: CNC(C)C1CCC(N)C(OC2C(N)CC(N)C(OC3OCC(C)(O)C(NC)C3O)C2O)O1 [Gentamicin]
# Description: as §1
# [6] = compound: CC1(C)S[C@@H]2[C@H](NC(=O)[C@H](N)c3ccccc3)C(=O)N2[C@H]1C(=O)O [Ampicillin]
# Description: as §1
# [7] = compound: NC[C@@H]1O[C@H](O[C@H]2[C@@H](O)[C@H](O[C@@H]3[C@@H](O)[C@H](N)C[C@H](N)[C@H]3O[C@H]3O[C@H](CN)[C@@H](O)[C@H](O)[C@H]3N)O[C@@H]2CO)[C@H](N)[C@@H](O)[C@@H]1O [Neomycin]
# Description: as §1
# [8] = compound: O=C(N[C@H](CO)[C@H](O)c1ccc([N+](=O)[O-])cc1)C(Cl)Cl [Chloramphenicol]
# Description: as §1
# [9] = compound: NC[C@H]1O[C@H](O[C@H]2[C@H](O)[C@@H](O[C@H]3O[C@H](CO)[C@@H](O)[C@H](N)[C@H]3O)[C@H](N)C[C@@H]2N)[C@H](O)[C@@H](O)[C@@H]1O [Kanamycin]
# Description: as §1
# 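Also: isolates derived from commercial starter, protective, probiotic or feed-additive cultures, from fermented products, from human gut mucosa or feces, and from human milk or colostrum.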
Test System,minimum inhibitory concentration [1] [µg/mL],minimum inhibitory concentration [2] [µg/mL],minimum inhibitory concentration [3] [µg/mL],minimum inhibitory concentration [4] [µg/mL],minimum inhibitory concentration [5] [µg/mL],minimum inhibitory concentration [6] [µg/mL],minimum inhibitory concentration [7] [µg/mL],minimum inhibitory concentration [8] [µg/mL],minimum inhibitory concentration [9] [µg/mL]
Lacticaseibacillus paracasei IM1395 (strain group: probiotic strains),2,0.25,0.12,16,4,2,4,8,64
Lactiplantibacillus plantarum IM112 (strain group: feed additives),16,0.5,4,32,2,0.5,4,4,64
Pediococcus pentosaceus IM1065 (strain group: non-starter strains),16,0.5,0.06,64,4,2,4,2,128
Lactiplantibacillus plantarum IM1151 (strain group: non-starter strains),16,0.5,< 0.03,32,2,1,2,4,64
Pediococcus pentosaceus IM1142 (strain group: non-starter strains),32,0.5,0.06,64,4,4,8,8,256
Lactiplantibacillus plantarum IM1027 (strain group: non-starter strains),8,0.25,4,64,8,2,8,4,128
Lacticaseibacillus rhamnosus IM1287 (strain group: non-starter strains),1,0.25,0.5,8,4,1,16,4,64
Pediococcus pentosaceus IM1054 (strain group: non-starter strains),32,0.5,0.12,64,4,4,8,4,256
Limosilactobacillus reuteri IM844 (strain group: human milk or colostrum),> 64,0.5,0.12,16,1,> 16,1,4,64
Lacticaseibacillus casei IM573 (strain group: probiotic strains),2,1,1,32,8,2,16,8,128
Lacticaseibacillus paracasei IM1356 (strain group: non-starter strains),1,0.5,0.25,32,4,2,8,4,64
Pediococcus acidilactici/pentosaceus/lolli IM715 (strain group: human milk or colostrum),32,0.5,0.12,128,8,4,8,4,256
Limosilactobacillus fermentum IM137 (strain group: human intestinal mucosa or faeces),4,0.5,0.06,16,2,0.5,8,4,64
Lacticaseibacillus casei IM831 (strain group: probiotic strains),1,0.25,0.12,64,8,2,16,8,64
Lactiplantibacillus plantarum IM1296 (strain group: non-starter strains),16,0.25,2,16,4,0.25,2,8,32
Pediococcus acidilactici/pentosaceus/lolli IM718 (strain group: human milk or colostrum),32,1,0.12,128,8,4,16,8,256

Test System,minimum inhibitory concentration [1] [µg/mL],minimum inhibitory concentration [2] [µg/mL],minimum inhibitory concentration [3] [µg/mL],minimum inhibitory concentration [4] [µg/mL],minimum inhibitory concentration [5] [µg/mL],minimum inhibitory concentration [6] [µg/mL],minimum inhibitory concentration [7] [µg/mL],minimum inhibitory concentration [8] [µg/mL],minimum inhibitory concentration [9] [µg/mL]
Lacticaseibacillus paracasei IM1141 (strain group: non-starter strains),1,0.12,0.12,16,2,2,4,4,32
Limosilactobacillus fermentum IM916 (strain group: human milk or colostrum),4,0.25,0.06,32,2,2,2,4,64
Lacticaseibacillus paracasei IM1083 (strain group: non-starter strains),1,0.25,0.12,32,4,1,8,4,64
Pediococcus pentosaceus IM1068 (strain group: non-starter strains),32,0.5,0.12,64,4,4,8,8,256
Lactiplantibacillus plantarum IM1344 (strain group: non-starter strains),16,1,4,64,2,0.25,8,8,128
Limosilactobacillus fermentum IM857 (strain group: human milk or colostrum),4,0.25,0.06,32,2,0.5,2,4,64
Lactiplantibacillus plantarum IM1127 (strain group: non-starter strains),16,0.5,0.25,32,4,2,4,8,128
Lacticaseibacillus casei IM1148 (strain group: non-starter strains),1,0.12,0.12,16,4,4,4,4,64
Lactiplantibacillus plantarum IM1152 (strain group: non-starter strains),8,0.5,1,128,8,1,8,16,256
Latilactobacillus curvatus IM1007 (strain group: non-starter strains),1,0.12,0.12,16,2,1,2,4,32
Lactiplantibacillus plantarum IM1394 (strain group: probiotic strains),32,0.5,16,64,8,0.5,8,8,128
Leuconostoc mesenteroides IM1327 (strain group: non-starter strains),2,1,0.5,64,4,2,2,8,128
Lacticaseibacillus paracasei IM692 (strain group: human intestinal mucosa or faeces),2,0.25,0.12,16,2,1,4,4,32
Lactiplantibacillus plantarum IM870 (strain group: probiotic strains),16,0.5,4,64,8,0.5,8,8,256
Lentilactobacillus kefiri IM1367 (strain group: non-starter strains),2,0.5,0.06,16,2,0.25,4,4,8
Lactiplantibacillus plantarum IM1348 (strain group: non-starter strains),16,0.5,0.12,16,2,0.25,4,4,32
